The labels stand for the following.
B1: chr2:32089778:32089779:+_ENSMUSG00000039262_ENSMUST00000036691|mus_mus|FALSE|FALSE (ssRNA)
RNA: GGGAGUUCUACAGUCCGACGAUCCUAAACAAGCUGCACAGUACACCUUUAGCAUCGUCUGCCCUUUCAAAUAGCUGGUCUAAGUGAAAGACAGAGGGAAGGCCAAAAGAAAAGCAAAGGAAAACAAAAGGACCCUCAAAAAGACAACAGAGGAUUGAGCAUCA
B2: chr3:115528449:115528450:-_ENSG00000185565_ENST00000490035|hu_hu|motif|central (ssRNA)
RNA: GGGAGUUCUACAGUCCGACGAUCCACACACGCACAGUGGAGAAAAUGAAAAUGGCACUUCCUAGCAUUUGCGGCAUGACGGGUGCUCUGGGGAGGGGGUGGAGGUGAGGAGAGGUGAGGGAGGAAAGGUGGGUGAAAAGGGAGCAACAGAGGAUUGAGCAUCA
B3: 75419824_75419944_3436_3pUTR_ENSMUSG00000032186_ENSMUST00000064433|mouse|control|control (ssRNA)
RNA: GGGAGUUCUACAGUCCGACGAUCGAAAGAGUUAUUCAACCUCCAAAGGGAUUGUGACCCACAGGUUGAGAACCACUGACUUAGCGACAUAGAGAGAAGGGAAACAAGAAGGAUGCUUUGUCAUGAAAGGAGAGGAAAAGGAAGCAACAGAGGAUUGAGCAUCA
B4: chr4:138660994:138660995:-_ENSMUSG00000050608_ENSMUST00000143971|mus_hu|FALSE|FALSE (ssRNA)
RNA: GGGAGUUCUACAGUCCGACGAUCGAAAUCAUGCUGACAGUUGGAAUAAGCCAUUCCUAAUCCCAUGCCAGAACCGAAGGCUAAUGGCCACAUUCUUCUUUUAAAGAAGGUAAGUGAGAAAACAAUUCCUAAUCCAAAACCAGUCAACAGAGGAUUGAGCAUCA
B5: chr9:131455196:131455197:+_ENSG00000119335_ENST00000372688|hu_mus|FALSE|FALSE (ssRNA)
RNA: GGGAGUUCUACAGUCCGACGAUCAAAUUCUUUGGAGAGAACUUUAUUUUCAAAGUAAGGAUUUUCAUCAAAAUAAAAAUCUAUUCUGUAACCUGAUUUAAUGUCUUCAAAUUCUGUCACUUCAACUCUGGUCAAAUAAUGCAGCAACAGAGGAUUGAGCAUCA
B6: chr22:32879901:32879902:+_ENSG00000100225_ENST00000397426|hu_mus|hu_hu_hu_mus_False|18_48 (ssRNA)
RNA: GGGAGUUCUACAGUCCGACGAUCCUCUUCCAUACUCAUGGCAUCCUGAAUUGACUCAGCUUCAACAUUUUGACUAGGCCCUUCCAUACUGUCGUCAGUCCAGGCAUCAAAUGGGGUUGCCUGUCCUUGGGAUGAAUCAGUCCCCAACAGAGGAUUGAGCAUCA
B7: chr17:30807540:30807541:+_ENSG00000108671_ENST00000457654|hu_hu|FALSE|FALSE (ssRNA)
RNA: GGGAGUUCUACAGUCCGACGAUCGUUCUGAAUUGUUUCCAGAGCAGCUUCGUAAGUUUUAUCUACUGGGGGUUCAUCGAAAAUAAUCAGGACACCCUCCCCCUGGUCCAAAAUCCCAUGAAAUUUCUUGUCAAGAAUCAUCUGCAACAGAGGAUUGAGCAUCA
B8: 102154940_102155060_4973_CDS_ENSMUSG00000021182_ENSMUST00000068411|mouse|control|control (ssRNA)
RNA: GGGAGUUCUACAGUCCGACGAUCGGGUGGAGGGUACUCAUGGCGGCCGAGAAGACCACGUCCCGAGGUGUUGCCAUCCCGAGACAGCGUGGCAGGGUCCCUGCUGGGGAUCAGGUCUGCGCUGCUGAAGCUCUCACACCGGCUCAACAGAGGAUUGAGCAUCA
B9: chr5:146773406:146773407:-_ENSG00000113657_ENST00000343218|hu_hu|motif|central (ssRNA)
RNA: GGGAGUUCUACAGUCCGACGAUCGGCCUGUCUGAUUGCAUGCAUGUAAAUGGGGGGAGGGGAGUCAAACAAAUCAAGGCGGUGCAUAAACAGAAAACAAAGCAAUAUUCGUAAAGCUAGGCAAGCGAGCGUAACAUUGGAGAACAACAGAGGAUUGAGCAUCA
B10: chr4:144460044:144460045:+_ENSG00000153147_ENST00000283131|hu_mus|hu_hu_hu_mus_False|88_98 (ssRNA)
RNA: GGGAGUUCUACAGUCCGACGAUCACGGUCCAUAGCCUGAAGAUCUACUUGGGGAUUCCAAUCUGAGUCAUAUAAAAUGACUACAUCAGCAGUUGCAAGAUUGAUGCCCAGACCACCAGCACGUGUGCUUAGCAUAAAUACAAACAACAGAGGAUUGAGCAUCA
B11: chr7:141445308:141445309:+_ENSG00000106028_ENST00000265304|hu_hu|hu_hu_hu_mus_False|38_98 (ssRNA)
RNA: GGGAGUUCUACAGUCCGACGAUCUAUGAUUGUUGUUGCUUGUCGCCUCACAUUGUUUUUAUCCAUGUACUCGCCAUAGUCCACUUUCCCUUCCACAUAAAUUCGAGCCCCCUUUUUCACAUACUGAUAUGCCACAUCUCUGAGCAACAGAGGAUUGAGCAUCA
B12: chr14:53113150:53113151:-_ENSG00000197930_ENST00000395686|hu_hu|FALSE|FALSE (ssRNA)
RNA: GGGAGUUCUACAGUCCGACGAUCUCCCCACAGACGACAUUUAAAACAACCAACACAAUCCAUAAUUCUUGAAAUAUUUCUAAAAUGCAGUCGAAAGUCCUCCUUUAGUUUGUGUGCUUCUUUUUUAUCCCCAGCAAAAAAUGACAACAGAGGAUUGAGCAUCA
B13: chr5:128448638:128448639:+_ENSG00000066583_ENST00000173527|hu_mus|hu_hu_hu_mus_False|28_68 (ssRNA)
RNA: GGGAGUUCUACAGUCCGACGAUCGGCACUCGCCUUAAUUAGGUUCUGAAUUUCCUUGAACUUCGGGUGGUCCUUAUCAGCCACCAGCUGUAGGAGGACAGCCUCACUCGUGGUCACGAUGAUCCCAGUGCGGGCAAGACGCUCCAACAGAGGAUUGAGCAUCA
B14: 101157611_101163074_311_3pUTR_ENSMUSG00000035086_ENSMUST00000041403|mouse|control|control (ssRNA)
RNA: GGGAGUUCUACAGUCCGACGAUCGAGUUUCAAUAAAUGGCUCCUCUCCUGAGUUAGCCUCUUCCUCCUGGGUCUCUCCUGGUUUCGCCUGGGCUGUGGUAAGUAAUGGAGCUGUGAGUUCCUGGAUGGUGACCCGGUCCAGGACAACAGAGGAUUGAGCAUCA

Some of the results follow.

The target of this assay is T1, UNK ZnF1-3 (human, UniProt Q9C0B0 31-174).
T1 sequence: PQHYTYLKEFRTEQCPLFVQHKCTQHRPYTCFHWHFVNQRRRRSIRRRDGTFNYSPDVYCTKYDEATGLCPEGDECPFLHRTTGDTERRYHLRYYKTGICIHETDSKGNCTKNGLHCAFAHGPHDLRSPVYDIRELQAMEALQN
As to the kind of experiment: nsRBNS (natural sequence RNA bind-n-seq); RBNS binding buffer (assumed for nsRBNS): 25 mM Tris pH 7.5, 150 mM KCl, 3 mM MgCl2, 0.01% Triton X-100, 500 ug/ml BSA, 20 U/ml SUPERase-In, 4 C; UNK is unkempt and MSI1 is Musashi-1; names of the RNAs are library labels; protein concentration not given here; high values mean tight binding.
B1: the binding signal was 2.31 enrichment R.

B2 registered a binding signal of 2.25 enrichment R.

B3 had a binding signal of 2.26 enrichment R.

Consider B4, for which the binding signal is 1.09 enrichment R.

Consider B5, for which the binding signal came out at 0.623 enrichment R.

Molecule B6 registered a binding signal of 0.925 enrichment R.

Molecule B7 gave a binding signal of 0.934 enrichment R.

In the case of B8, the binding signal is 0.771 enrichment R.

For B9, the binding signal is 1.97 enrichment R.

Take B10: the binding signal came to 1.28 enrichment R.

Molecule B11 returned a binding signal of 0.614 enrichment R.

Molecule B12 registered a binding signal of 1.91 enrichment R.

For the molecule B13, the binding signal came out at 0.736 enrichment R.

As for B14, the binding signal was 0.637 enrichment R.

(Values after publication PMC12136788.)
